According to the supplement of paper PMC3334620:
In all, about 33,000 sequences were measured (“E-score (-0.5 to 0.5)”: median about -0.032, highest 2% from about 0.36 on). Some of the results follow.

Each sequence was assayed against T1, Sko1 (UniProt Q02100) (assay: PBM E-score (8-mer binding enrichment) (E-score (-0.5 to 0.5)); higher = stronger / more preferred TF binding; most listed sequences are background and not binding sites). Details: protein concentration: 200 nM; construct: GST-full length.
T1 sequence: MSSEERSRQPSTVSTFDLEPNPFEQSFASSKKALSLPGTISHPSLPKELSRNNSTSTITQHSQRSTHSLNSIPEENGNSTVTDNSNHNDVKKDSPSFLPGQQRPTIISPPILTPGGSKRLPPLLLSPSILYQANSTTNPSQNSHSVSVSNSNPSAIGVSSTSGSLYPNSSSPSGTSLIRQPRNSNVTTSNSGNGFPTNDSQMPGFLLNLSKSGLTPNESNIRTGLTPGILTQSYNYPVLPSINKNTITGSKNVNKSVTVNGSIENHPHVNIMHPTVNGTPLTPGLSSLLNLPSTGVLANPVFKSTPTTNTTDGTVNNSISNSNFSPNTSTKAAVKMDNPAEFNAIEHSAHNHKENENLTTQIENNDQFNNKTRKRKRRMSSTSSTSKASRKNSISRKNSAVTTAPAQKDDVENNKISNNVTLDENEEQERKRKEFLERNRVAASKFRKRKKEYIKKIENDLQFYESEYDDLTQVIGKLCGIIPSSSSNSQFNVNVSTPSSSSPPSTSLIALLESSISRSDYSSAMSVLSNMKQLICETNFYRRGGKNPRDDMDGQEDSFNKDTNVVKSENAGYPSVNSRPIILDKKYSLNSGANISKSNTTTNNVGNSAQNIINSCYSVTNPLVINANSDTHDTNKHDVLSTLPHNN
In short: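 Each ungapped eight-base word and its reverse complement, pooled, received an E-score from the Universal PBM Analysis Suite. Underlying scans, normalised with masliner, recorded fluorescent anti-GST bound to GST-tagged yeast transcription factors. These were applied at about 100-200 nM to universal all-10-mer Agilent arrays double-stranded by primer extension.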

| Sequence | PBM E-score |
| --- | --- |
| CAGGCATG | -0.0423 |
| AGCGATCC | -0.148 |
| AGCTCCCT | -0.288 |
| GCTCTGGA | 0.0591 |
| CAGCGACG | 0.0901 |
| GCGGGATA | -0.181 |
| AGGAGACG | -0.0804 |
| CGCAAGAC | 0.101 |
| CCACACAG | -0.208 |
| GCCATATA | 0.0528 |
| ATACATAA | 0.305 |
| GGTAAATA | 0.0846 |
| CCAATTCA | 0.0713 |
| CTTAAGTA | 0.102 |
| AGTTACCA | 0.0186 |
| AGCATGGC | -0.179 |
| CATGTGCA | 0.0248 |
| ACGGAGGG | -0.24 |
| CCTGTACA | -0.0613 |
| AACGGCTC | -0.0851 |
| AGCTGTCA | 0.0211 |
| CTCCACTC | -0.27 |
| CGCCTTAG | -0.113 |
| AACGCCCA | -0.0022 |
| CAGAAACC | -0.101 |

| Sequence | PBM E-score |
| --- | --- |
| CGTTCGGA | -0.163 |
| CACAGGGA | -0.221 |
| CAAGGCTG | -0.229 |
| GGCAGTCA | -0.136 |
| CGTGCGTC | 0.388 |
| CATTCACC | -0.0121 |
| AACGTACA | 0.303 |
| CGGCCGGC | -0.313 |
| GGTAACTA | 0.0515 |
| CAGGAAAG | -0.158 |
| CCTAAAAG | -0.163 |
| ACGCGTGA | 0.32 |
| ACTGTGGC | -0.239 |
| CGTTGATC | 0.152 |
| AAAGATGT | 0.119 |
| CCTAGCCC | -0.221 |
| GAGGAGCC | -0.21 |
| CACAGGCA | 0.00128 |
| AACGGAGA | -0.108 |
| ATATCGCG | 0.12 |
| ACTCCAGG | -0.0919 |
| GCTAGTAA | -0.00339 |
| CAATCTAA | 0.0428 |
| AGTGTATA | 0.165 |
| GAGTTCGC | -0.23 |

| Sequence | PBM E-score |
| --- | --- |
| CGCGTGAG | 0.224 |
| AGCGAGCT | 0.114 |
| AGGTTCAC | -0.0397 |
| GACCGGTA | -0.351 |
| AAACTACT | 0.0951 |
| AAAAGCAT | -0.00843 |
| AATTCCGC | -0.0973 |
| GATTCAAC | 0.0452 |
| GTGCGGAA | 0.0182 |
| ATGACCAC | 0.0672 |
| GGACCATA | -0.148 |
| CAGTCTGC | -0.155 |
| AGGGACAC | -0.0953 |
| GGGGCTTA | -0.302 |
| ACTTCACG | 0.0936 |
| ACGATAGC | 0.221 |
| AAACACCG | -0.0565 |
| AGCGACGC | -0.0658 |
| ACTTTAGA | 0.00666 |
| ACGCATTC | 0.229 |
| CACAGATA | -0.0967 |
| GGATCACC | -0.181 |
| CTTAATTC | 0.0412 |
| GACAGCGA | -0.178 |
| ACCTATTG | -0.00471 |

| Sequence | PBM E-score |
| --- | --- |
| GGAATCCC | -0.266 |
| GGTTATTA | 0.177 |
| ATCACCCA | 0.0215 |
| GTACGACA | 0.326 |
| AGCACCCG | -0.105 |
| GCGGCTCC | -0.379 |
| ACGAATAT | 0.316 |
| CGCTTAGC | -0.251 |
| CCGTGGCA | -0.24 |
| AGCTCTAT | -0.12 |
| AGGTAAAC | 0.172 |
| CATATCCG | 0.0206 |
| GAATCCAC | 0.0158 |
| CGTGCAAG | 0.0462 |
| CAACGTGC | 0.141 |
| ATATAGCG | 0.168 |
| CTCCGTCC | -0.263 |
| AGCACCAT | -0.293 |
| GTGGAAAC | 0.0657 |
| CATAAACA | 0.287 |
| ACAGGTCT | -0.16 |
| GAGTACAC | 0.0088 |
| CTAGGTTA | -0.0237 |
| CGTTTAGC | 0.231 |
| AAATTGAG | -0.0473 |

| Sequence | PBM E-score |
| --- | --- |
| ATTAGCGG | -0.14 |
| ATAACCGC | -0.0457 |
| AACCCTTG | -0.205 |
| ATCAGGCG | -0.0176 |
| AATGCACA | 0.0421 |
| AGCTAATA | 0.136 |
| CATCGGAA | 0.153 |
| CGAATGCC | -0.201 |
| CCTCATCG | -0.0839 |
| GAGGTAGA | -0.155 |
| CTTTAGTC | -0.0749 |
| ATGCCGCG | -0.169 |
| CTAGACTA | -0.139 |
| GCCAGTAC | -0.0903 |
| CTAGGGGC | -0.347 |
| CTTAAACA | -0.0247 |
| GACTGGAC | -0.178 |
| ACTACTGG | -0.148 |
| ATCGAGGG | -0.228 |
| CGCAACCC | 0.0124 |
| CTGTCAGC | -0.218 |
| ACAAATCC | 0.0159 |
| CCGTAAGC | -0.0492 |
| GGGTCATA | -0.0307 |
| AACACGGG | -0.124 |

| Sequence | PBM E-score |
| --- | --- |
| GTGGTCGA | -0.107 |
| CCTCGCCA | -0.321 |
| GGCGGCTA | -0.19 |
| AGATCCTA | -0.136 |
| AGACGCAC | 0.104 |
| CCACGTGG | 0.177 |
| CACCTTGA | -0.195 |
| ACCCACGC | -0.0576 |
| TTCGAGAA | 0.185 |
| CCACGTGC | 0.341 |
| GACTGGCC | -0.338 |
| GCATCAAA | 0.128 |
| AAGACTAC | -0.0828 |
| CCCACTAC | 0.137 |
| ATAGACTA | 0.0808 |
| ATCCAAGC | -0.183 |
| CATCTACA | 0.114 |
| AAGCAAGT | -0.127 |
| CCGAGTCG | -0.264 |
| TAACGGCA | 0.0289 |
| AACCTGCG | -0.229 |
| ACACTCAC | -0.00305 |
| ACTCTTAA | -0.0308 |
| ACTCATGC | -0.0532 |
| CGCTTTCC | -0.057 |

| Sequence | PBM E-score |
| --- | --- |
| CAGCCAAA | -0.0839 |
| AAGTGGTG | -0.113 |
| GCCGAGAA | -0.198 |
| AGTTTCTA | 0.116 |
| CTTTCAGC | -0.164 |
| CGGCTATA | 0.0503 |
| AACCCCTT | -0.23 |
| TCGATTAA | 0.208 |
| AGTGCGCC | -0.171 |
| CAAGCACC | -0.203 |
| GACTCGAC | -0.225 |
| CTTACCTA | 0.0888 |
| CTCCAAAA | -0.0807 |
| ACCACACG | 0.204 |
| GCCTGGTA | -0.144 |
| CATGGAGG | -0.298 |
| CTAGCGCC | -0.0924 |
| GGTCTAAC | -0.242 |
| CACTACCA | -0.029 |
| AAGTGTGC | -0.0238 |
| GCTGTTAC | -0.11 |
| AACCAACT | 0.0928 |
